Molecules are shown by their SMILES. The list shows a part of the results. Single values of this set are uncertain. Values with irradiation are relative to irradiated vehicle.

The experiment relates to A549-Dual. Briefly: ISRE reporter (Lucia luciferase) activity, viability-corrected, relative to vehicle (fold change vs vehicle); higher = more activation of STING-IRF / NF-kB immune response reporter. The conditions noted are these: 10 µM; irradiation: 8 Gy/4 fr.
For `CC(C)(C)C(=O)Oc1ccc(S(=O)(=O)Nc2ccccc2C(=O)NCC(=O)[O-])cc1.O.O.O.O.[Na+]` [Sivelestat sodium tetrahydrate], the ISRE reporter turned out to be 1.07.
In turn, `COc1cccc(OC)c1C(=O)OCc1cc(O)ccc1OC1OC(CO)C(O)C(O)C1O` (stereo not given) [Curculigoside] came in with an ISRE reporter of 1.51.
In the case of `CC(C)(C)NCC(O)COc1ccccc1C1CCCC1.CC(C)(C)NCC(O)COc1ccccc1C1CCCC1.O=S(=O)(O)O` (stereo not given) [Penbutolol Sulfate] it was 0.56; in that of `Nc1cc[nH]c(=O)n1` [Cytosine], 0.913.
Molecule `O=C(O)[C@@H]1C[C@@H](O)CN1` [L-Hydroxyproline] showed an ISRE reporter of 1.41.
In the case of `COc1ccc(CC(C)NCC(O)c2ccc(O)c(NC=O)c2)cc1.O=C(O)C(O)C(O)C(=O)O` (stereo not given) [Arformoterol Tartrate], the ISRE reporter amounted to 1.27.
As for `COc1ccc(NC(=O)c2ccc(C(=N)N(C)C)cc2)c(C(=O)Nc2ccc(Cl)cn2)c1.O=C(O)/C=C\C(=O)O` [Betrixaban maleate], the figure is 1.34; as for `COc1ccc2[nH]cc(CCNC(C)=O)c2c1` [Melatonin], 0.848; as for `COC(=O)Nc1nc2ccc(Sc3ccccc3)cc2[nH]1` [Fenbendazole], 0.185.
In the case of `CSc1ccc2c(c1)N(CCC1CCCCN1C)c1ccccc1S2.Cl` (stereo not given) [Thioridazine hydrochloride] it was 0.715.
In the case of `O=C(c1ccc(F)cc1)C1CCN(CCn2c(=O)[nH]c3ccccc3c2=O)CC1` [Ketanserin] it was 0.971.
Molecule `Cc1c(-c2ccccc2)oc2c(C(=O)OCCN3CCCCC3)cccc2c1=O.Cl` [Flavoxate HCl] registered an ISRE reporter of 0.751.
In the case of `Nc1nc(=O)n(C2CSC(CO)O2)cc1F` (stereo not given) [Emtricitabine] it was 0.596; in that of `COCC1CC(c2ncc(-c3ccc4c(c3)COc3cc5c(ccc6[nH]c(C7CCC(C)N7C(=O)C(NC(=O)OC)C(C)C)nc65)cc3-4)[nH]2)N(C(=O)C(NC(=O)OC)c2ccccc2)C1` (stereo not given) [Velpatasvir], 0.869; in that of `NC(Cc1cc(I)c(Oc2ccc(O)c(I)c2)c(I)c1)C(=O)O` (stereo not given) [Triiodothyronine], 1.02.
In the case of `Cl.NCCCC[C@H](N)C(=O)O` [L-Lysine hydrochloride] it was 0.811; in that of `COC(=O)C1=C(C)NC(C)=C(C(=O)OCC(C)C)C1c1ccccc1[N+](=O)[O-]` (stereo not given) [Nisoldipine], 0.496.
The molecule `CC(C)(C)NC(=O)NC(C(=O)N1CC2C(C1C(=O)NC(CC1CCC1)C(=O)C(N)=O)C2(C)C)C(C)(C)C` (stereo not given) [Boceprevir] showed an ISRE reporter of 0.71.
In turn, `O=c1n(CCCN2CCN(c3cccc(Cl)c3)CC2)nc2ccccn12` [Trazodone] displayed an ISRE reporter of 0.958.
In the case of `CNC1C(O)C(OC2C(N)CC(N)C(OC3OC(CN)=CCC3N)C2O)OCC1(C)O.CNC1C(O)C(OC2C(N)CC(N)C(OC3OC(CN)=CCC3N)C2O)OCC1(C)O.O=S(=O)(O)O.O=S(=O)(O)O.O=S(=O)(O)O.O=S(=O)(O)O.O=S(=O)(O)O` (stereo not given) [Sisomicin sulfate] it was 0.896; in that of `Clc1ccc(C(Cn2ccnc2)OCc2ccsc2Cl)c(Cl)c1` (stereo not given) [Tioconazole], 0.294; in that of `COc1ccc(-c2coc3cc(O)ccc3c2=O)cc1` [Formononetin], 0.394.
As for `Cl.N=C(N)N` [Guanidine HCl], the figure is 1.11; as for `N#C/C(=C1/SCC(c2ccc(Cl)cc2Cl)S1)n1ccnc1` (stereo not given) [Luliconazole], 0.976; as for `CC1CCOC2Cn3cc(C(=O)NCc4ccc(F)cc4F)c(=O)c([O][Na])c3C(=O)N12` (stereo not given) [Dolutegravir Sodium], 0.479.
In the case of `CCN(CC)C(=O)C1(c2ccccc2)CC1CN.Cl` (stereo not given) [Levomilnacipran Hydrochloride] it was 0.894; in that of `CC/C=C\C/C=C\C/C=C\CCCCCCCC(=O)OC` [Methyl linolenate], 0.905; in that of `CC1(OC(=O)/C=C/c2ccccc2)CC(O)C2(O)C=COC(OC3OC(CO)C(O)C(O)C3O)C12` (stereo not given) [Harpagoside], 0.783.
Regarding `CCCCCN(C)CCC(O)(P(=O)(O)O)P(=O)(O)O.O.[NaH]` [Ibandronate sodium], the ISRE reporter is 0.907.
`CC(C)=CCCC(C)(OC1OC(COC2OC(CO)C(O)C(O)C2O)C(O)C(O)C1O)C1CCC2(C)C1C(O)CC1C3(C)CCC(OC4OC(CO)C(O)C(O)C4OC4OC(CO)C(O)C(O)C4O)C(C)(C)C3CCC12C` (stereo not given) [Ginsenoside Rb1] registered an ISRE reporter of 0.629.

For the origin of these results see the supplement of paper PMC9174493.
